Laboratory results reported in publication PMC12136788.
Some of the results follow.

B1: chr1:13049810:13050369:-|CDS|ENSG00000274764|control|control|control (ssRNA)
RNA: GGGAGUUCUACAGUCCGACGAUCGCCCCGCGGGAGAGUUAUGGUGCUGAUGGUACUCUCUGCUGGAACAGAUUUGCUCAAAUUAGGGCUGAGCUGAUGAACAGAGUGAGGGACUUAAGGCACCCCAAGAGGAUCUUUUUCUGUCAACAGAGGAUUGAGCAUCA
B2: chr5:133955728:133955829:-|3pUTR|ENSG00000113583|msi1|FALSE|unique (ssRNA)
RNA: GGGAGUUCUACAGUCCGACGAUCUCAAUAUGUAAAUAUGUGAUUUGAACCAUGGUUGACUUACAAGUGUCACUACAGCUUUUUAGAAAACAUAGCCCUAAUAUAUGUUAAGCAGGACCCGGGUGAGCCAGUGGGCUUGCGCUUCAACAGAGGAUUGAGCAUCA
B3: chr12:111449306:111449407:+|3pUTR|ENSG00000111252|msi1|FALSE|unique (ssRNA)
RNA: GGGAGUUCUACAGUCCGACGAUCGCUGGCUUGGUGCCCUCCAAGCAUCUAAUGGCUUAUUAAAUUAUCCCACAAGUGGGUUUUAGGCUCCUUUUUUGAGCCAAAAUGGAAGCUGGGAAUCUGGUGCCAUAACUAAUGAGAAACCAACAGAGGAUUGAGCAUCA
B4: ENSG00000136451:be:win_4051|3pUTR|ENSG00000136451|bound_else_gene|NA|bound_elsewhere_windowed (ssRNA)
RNA: GGGAGUUCUACAGUCCGACGAUCGGUGGGCCACUGAAAAGGGGUACCGAAUAGGUUGUGUGAUGAAAUUCUGUGUCUUGGAACUGGAAUUGAGUUUCGAUGUUGAUGAACUGAUUCAACCAGGUGUUGAAGGCACGACAGCCACAACAGAGGAUUGAGCAUCA
B5: chr8:102207567:102207681:-|3pUTR|ENSG00000048392|unk|total|mutant (ssRNA)
RNA: GGGAGUUCUACAGUCCGACGAUCUAUUAAUUGCAAUGAUGUUGUAAUAAAAUACUCUCAUUUCCUUAAAAUAAUUGUGAUUCCCGGUCCCCGGAUCCCGAAUCCGAUCUUUGUAUUUUUAAUGCUCCGGGGAAGAAUAUAAGUCAACAGAGGAUUGAGCAUCA
B6: ENSG00000056097:stop:overlap|stop_codon|ENSG00000056097|stop_codon|NA|stop_codon (ssRNA)
RNA: GGGAGUUCUACAGUCCGACGAUCAAGUCACUAUCACACUGACAUCUCCAAUUAUUCGAGAAGAGAACAUGAGGGAAGGAGGCUAGAGCUAAUGGUCUGCAGUCCUGUGUGAUUAUCAUACGCAUUCUUCGAGACCUCUGUCAGCAACAGAGGAUUGAGCAUCA
B7: ENSG00000198589:be:win_2351|CDS|ENSG00000198589|bound_else_gene|NA|bound_elsewhere_windowed (ssRNA)
RNA: GGGAGUUCUACAGUCCGACGAUCAUAAUGUGCUGUUUGAGAUUCUUAUAGAACAGAUUGGUACUCAGGUGAUACAUAAACAGCAUCCAGAUCCUGAUUCUUCAGUGAAGAUACAAAACCCUCAGAUACUAAAAGUAAUUGCGACAACAGAGGAUUGAGCAUCA
B8: ENSG00000198589:be:win_9051|3pUTR|ENSG00000198589|bound_else_gene|NA|bound_elsewhere_windowed (ssRNA)
RNA: GGGAGUUCUACAGUCCGACGAUCGUAAAUGUAAUUUAAAACAUCUCAAUUAAGUCUGUCUAUCAAUAUUGUUCUUCAAGCAUGUUUUAGACCUAGAAAAGUAUGGUUUGGGGGAGGCUAUUUUAUUGUGUGGUUAGCACAAGGCAACAGAGGAUUGAGCAUCA
B9: chr1:180199467:180199568:+|3pUTR|ENSG00000116260|msi1|FALSE|unique (ssRNA)
RNA: GGGAGUUCUACAGUCCGACGAUCCACAGGAACAAUUUCCUCAAGGAGACAGUGGCAUGGAGCUUUGAAAGACGAGUAGGUGUUAGCAAGGAAAUAAGGAGGAACGGGGGUUACGGGCAGAGGAGAAAGCACAUGCCAAGUCAGCAACAGAGGAUUGAGCAUCA
B10: chr4:186588032:186588133:-|3pUTR|ENSG00000083857|msi1|total|mutant (ssRNA)
RNA: GGGAGUUCUACAGUCCGACGAUCUUUUUUUACUAUAACCAGGGUUUCAUUCUGUCUUUUUCCACUGAAGUGUGACAUUUUGUCCGUACAUUUCAGUGCCGUCAUUCAUUUCCCGCUGUACACCGGAUGAAGGAGAGAUCAGAUCAACAGAGGAUUGAGCAUCA
B11: chr1:111147767:111147876:+|CDS|ENSG00000134255|unk|FALSE|unique (ssRNA)
RNA: GGGAGUUCUACAGUCCGACGAUCAUUAAAUAAAUUGUUUCAGUUACCAACACCACCAUUGUCAAGACACCAACUAAAGCGGCUAGAAGAACACAGAUAUCAAAGUGCUGGACGGUCCCUGCUUGAGCCCUUAAUGCAAGGGUACAACAGAGGAUUGAGCAUCA
B12: chr11:118396625:118396726:+|3pUTR|ENSG00000110344|msi1|total|mutant (ssRNA)
RNA: GGGAGUUCUACAGUCCGACGAUCAACUUGACAAUGCUCCCCUGGCUUGCAGGAAAUUAUACUUAUUACCGCAUCACCAAGUUCCGAAAUCAUCACUAAUUUUCACCCUCUGUUGUCUCUUCAUAUUCUUCUUCCUUUUCCUAACAACAGAGGAUUGAGCAUCA
B13: chr10:110133424:110133536:+|CDS|ENSG00000148700|unk|total|mutant (ssRNA)
RNA: GGGAGUUCUACAGUCCGACGAUCGCAUGAUGUUGAAGAUGAGCUUGCUAAGCGAGUGAGCCGGUUAAGCACAAGUACAACCACCGAAAACAUCGAGAUUACUAUUAAGUCUCCAGAGAAAAUCGAAGAAGUCCUGUCACCUGACAACAGAGGAUUGAGCAUCA
B14: ENSG00000136451:be:win_1051|CDS|ENSG00000136451|bound_else_gene|NA|bound_elsewhere_windowed (ssRNA)
RNA: GGGAGUUCUACAGUCCGACGAUCCAACAACAACAACAUGUGACAAGCUGGCCAGGGAAGCAAGUAGAAACACUGAGACUGUGGGAAGAAGCUGUUAAAGCAAGGAAGAAAGAAGCUGCUAACCUGUGCCAAACCUCCACGGCUCAACAGAGGAUUGAGCAUCA
B15: chr2:70277881:70277982:+|3pUTR|ENSG00000116005|msi1|FALSE|unique (ssRNA)
RNA: GGGAGUUCUACAGUCCGACGAUCACCUGAGGGAGAACUUAAAGACAUCUUAGUUGGGGAGUAGUCCUUUUGAAUUUUACAGCUAGAUAUAAUCUUCAGUCAGAUAAAAUUUAUGGGAGCUGGUGUCUUAUGCCUGACUCUUAGCAACAGAGGAUUGAGCAUCA
B16: chr6:105098323:105098438:-|3pUTR|ENSG00000112276|msi1|FALSE|unique (ssRNA)
RNA: GGGAGUUCUACAGUCCGACGAUCUAUCAGUGUCUCAAUGUGAAGAUUGUAACCUCAAGAUUAGGAAUCUUAAAAGAGCCACUUAGCCUGAAUGGGAAACGUGAGACUAUUUUUAAACACACACCUCUAAGGAAGAAGCCUCCCCAACAGAGGAUUGAGCAUCA
B17: chr14:23351947:23352451:-|CDS|ENSG00000092096|control|control|control (ssRNA)
RNA: GGGAGUUCUACAGUCCGACGAUCUGCCUCUGGCUGGGAGCAGCCUCCCAAUGCCAGCGGCGUCAGCGUCGCCAGCGCUGCCCUAGCAGCCAGCGCCGCCAGCCGUGUCGCCACCAGUACCGACCCCUCGUGCAGCGGCUUCGCCAACAGAGGAUUGAGCAUCA
B18: chr19:17816511:17817055:-|three_prime_utr|ENSG00000248099|control|control|control (ssRNA)
RNA: GGGAGUUCUACAGUCCGACGAUCCUACCCCAGACCAAUGCCACCUGCAGCCUGUGGAGUCAACUGCAGAAUAAAUCACACCCUAGCCCUGGCUUGGAGGAUCCCCGCUUUCACAGAUGCUGGACACUGACAGCCAAAUGUCCUCAACAGAGGAUUGAGCAUCA
B19: chr19:53353201:53353302:+|CDS|ENSG00000213799|msi1|FALSE|unique (ssRNA)
RNA: GGGAGUUCUACAGUCCGACGAUCCACAAUUCAGCCCUUGAAAUUCAUAAGGCAAUUCAUACUGGAGAAAAACCUUACAAGUGUAGUGAAUGUGGCAAGGUUUUUAAUAGAAAAGCAAACCUUUCACGUCAUCAUAGACUUCAUCAACAGAGGAUUGAGCAUCA
B20: ENSG00000182944:stop:overlap|stop_codon|ENSG00000182944|stop_codon|NA|stop_codon (ssRNA)
RNA: GGGAGUUCUACAGUCCGACGAUCGAGGACCUGGAAAAAUGGAUAAAGGCGAGCACCGUCAGGAGCGCAGAGAUCGGCCCUACUAGAUGCAGAGACCCCGCAGAGCUGCAUUGACUACCAGAUUUAUUUUUUAAACCAGAAAAUCAACAGAGGAUUGAGCAUCA
B21: chr1:205084032:205084133:-|CDS|ENSG00000174529|msi1|FALSE|unique (ssRNA)
RNA: GGGAGUUCUACAGUCCGACGAUCGGAGACCGUCUGUGAGGUGGGCCCUGAUGGAGUGAGAAGGAAAUGUCAGACUCGGCGCUUAGAAUGUCUGACCAACUGGAUCUGUGGGAUGCUCCAUUUCACCAUUCUCAUUGGCAAGGACAACAGAGGAUUGAGCAUCA
B22: chr8:23842320:23842421:-|3pUTR|ENSG00000159167|msi1|total|mutant (ssRNA)
RNA: GGGAGUUCUACAGUCCGACGAUCUAUGUAUCUACAAUACAUAUAUCUACACAUACAGAAAGAAGCAGUUCUCACAAUGUUGCCCGUUUUUUGCUUCUCUUUCCCCCACCCUACUCCCUCCAAUUCCCCCUUAAACUUCCAAAGCAACAGAGGAUUGAGCAUCA

biological target: MSI1 full-length (mouse, UniProt Q61474 1-362); assay: nsRBNS (natural sequence RNA bind-n-seq); RBNS binding buffer (assumed for nsRBNS): 25 mM Tris pH 7.5, 150 mM KCl, 3 mM MgCl2, 0.01% Triton X-100, 500 ug/ml BSA, 20 U/ml SUPERase-In, 4 C; UNK is unkempt and MSI1 is Musashi-1; names of the RNAs are library labels; protein concentration not given here; high values mean tight binding
Chain of UniProt Q61474 (Q61474 whole entry): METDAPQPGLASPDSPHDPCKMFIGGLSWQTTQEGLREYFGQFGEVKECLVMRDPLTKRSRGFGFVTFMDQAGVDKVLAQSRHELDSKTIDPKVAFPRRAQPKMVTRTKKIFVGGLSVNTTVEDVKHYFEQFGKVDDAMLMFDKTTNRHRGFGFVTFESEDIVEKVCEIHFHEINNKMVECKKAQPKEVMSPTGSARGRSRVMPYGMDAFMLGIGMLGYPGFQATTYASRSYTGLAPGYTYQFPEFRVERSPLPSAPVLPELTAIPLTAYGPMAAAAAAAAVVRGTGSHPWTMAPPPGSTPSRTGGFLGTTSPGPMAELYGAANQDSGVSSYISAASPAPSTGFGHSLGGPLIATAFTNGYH

| Binder | binding signal [enrichment R] |
| --- | --- |
| B1 | 0.485 |
| B2 | 2.68 |
| B3 | 0.423 |
| B4 | 0.272 |
| B5 | 0.414 |
| B6 | 0.441 |
| B7 | 1.48 |
| B8 | 3.05 |
| B9 | 1.07 |
| B10 | 0.482 |
| B11 | 1.39 |
| B12 | 1.46 |
| B13 | 0.233 |
| B14 | 0.491 |
| B15 | 1.14 |
| B16 | 0.667 |
| B17 | 0.366 |
| B18 | 0.578 |
| B19 | 1.02 |
| B20 | 0.369 |
| B21 | 0.55 |
| B22 | 0.528 |
